Results from patent publication US20220204643A1 (published 2022).
Where two headings read alike, the source gives them in different places.

T1: catenin alpha like 1, transcript variant 1 (human, UniProt Q9UBT7 1-734)
T1 construct: HuProt array protein, full-length recombinant from yeast; also called CTNNAL1
T1 sequence: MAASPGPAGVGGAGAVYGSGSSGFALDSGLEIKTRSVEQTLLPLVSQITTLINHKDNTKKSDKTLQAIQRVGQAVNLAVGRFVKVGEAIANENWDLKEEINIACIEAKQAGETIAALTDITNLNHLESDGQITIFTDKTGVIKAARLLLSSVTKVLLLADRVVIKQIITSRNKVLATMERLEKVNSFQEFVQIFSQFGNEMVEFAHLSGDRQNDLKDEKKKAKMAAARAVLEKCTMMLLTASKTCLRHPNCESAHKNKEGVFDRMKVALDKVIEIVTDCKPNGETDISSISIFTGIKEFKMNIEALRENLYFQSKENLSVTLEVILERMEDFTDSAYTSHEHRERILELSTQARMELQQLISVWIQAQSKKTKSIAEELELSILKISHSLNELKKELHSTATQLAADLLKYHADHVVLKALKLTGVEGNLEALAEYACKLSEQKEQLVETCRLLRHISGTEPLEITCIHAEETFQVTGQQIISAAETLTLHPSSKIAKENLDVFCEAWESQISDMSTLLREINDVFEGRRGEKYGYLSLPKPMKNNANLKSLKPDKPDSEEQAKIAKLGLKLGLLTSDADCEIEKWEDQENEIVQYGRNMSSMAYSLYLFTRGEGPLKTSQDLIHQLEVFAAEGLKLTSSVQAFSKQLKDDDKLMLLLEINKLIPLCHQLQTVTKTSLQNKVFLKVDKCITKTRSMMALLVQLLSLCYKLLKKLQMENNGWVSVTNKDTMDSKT

T2: catenin alpha like 1, transcript variant 1 (human, UniProt Q9UBT7 1-734)
T2 construct: on protein array; also called CTNNAL1
T2 sequence: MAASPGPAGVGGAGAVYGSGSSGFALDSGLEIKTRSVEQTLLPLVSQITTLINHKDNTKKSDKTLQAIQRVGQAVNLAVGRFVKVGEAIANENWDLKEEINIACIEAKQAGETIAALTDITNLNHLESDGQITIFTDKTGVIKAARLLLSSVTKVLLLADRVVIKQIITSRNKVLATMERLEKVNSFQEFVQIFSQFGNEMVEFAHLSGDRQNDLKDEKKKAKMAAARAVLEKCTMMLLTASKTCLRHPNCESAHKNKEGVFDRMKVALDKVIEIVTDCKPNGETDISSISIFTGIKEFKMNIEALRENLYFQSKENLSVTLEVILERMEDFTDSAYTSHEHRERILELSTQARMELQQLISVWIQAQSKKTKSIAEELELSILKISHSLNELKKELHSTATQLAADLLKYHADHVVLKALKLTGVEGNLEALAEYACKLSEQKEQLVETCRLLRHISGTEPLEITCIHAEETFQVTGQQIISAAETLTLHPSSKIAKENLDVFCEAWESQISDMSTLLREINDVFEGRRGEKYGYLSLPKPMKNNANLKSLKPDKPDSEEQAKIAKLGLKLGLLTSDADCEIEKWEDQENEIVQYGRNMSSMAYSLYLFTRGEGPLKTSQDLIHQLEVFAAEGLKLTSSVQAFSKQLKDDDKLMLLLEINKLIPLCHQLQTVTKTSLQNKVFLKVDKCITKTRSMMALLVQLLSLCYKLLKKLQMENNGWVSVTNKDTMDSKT


Tests used:
[1] = target: T1, catenin alpha like 1, transcript …
[2] = target: T2, catenin alpha like 1, transcript …; experiment: protein array

binding result [1]	binding result [2]	Binder
binds	–	TBRE1023 (antibody, V domains shown, detected with anti-human IgG Fc) VH: PVQLVQSGAEVKKPGSSVKVSCKASGGTFSSYAISWVRQAPGQGLEWMGGIIPIFGTANYAQKFQGRVTITADESTSTAYMELSSLRSEDTAVYYCARDPMWVSYAFDIWGQGTMVTVSS VL: [… about 100 residues …]
–	binds	TBRE1023 (antibody, V domains shown, VH/VL only) VH: PVQLVQSGAEVKKPGSSVKVSCKASGGTFSSYAISWVRQAPGQGLEWMGGIIPIFGTANYAQKFQGRVTITADESTSTAYMELSSLRSEDTAVYYCARDPMWVSYAFDIWGQGTMVTVSS VL: [… about 100 residues …]
